Whole data set: some 33,000 sequences, median “E-score (dimensionless, -0.5 to 0.5)” near -0.058, cut for the highest 2% near 0.35. The list shows a part of the results.
test system: MvaT; assay: PBM 8-mer E-score (mean of HK and ME arrays) (E-score (dimensionless, -0.5 to 0.5)); higher = stronger relative binding preference; most listed sequences are background and not binding sites
Method in brief: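 Full-length P. aeruginosa MvaT carrying an N-terminal glutathione S-transferase tag was tested by protein binding microarray following a previously described protocol. Two universal double-stranded 60-mer arrays, ME and HK, were used, each with a constant 25-mer primer region and a variable 35-mer region covering all 8-mers. The rank-based E-score is the mean of the two arrays, parsed with a custom script. Its range runs from -0.5 to 0.5 for each 8-mer.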

Point of comparison: CGGTCCCC, “PBM 8-mer E-score” value -0.373. Against it:
- CCGCTCTC — higher, -0.31
- ACATGCCA — higher, -0.0617
- CTCGTCAG — higher, -0.173
- ACGCGGAG — higher, -0.247
- GACCAGAC — higher, -0.127
- GGGCCGTA — higher, -0.325
- AGGAGATA — higher, -0.0422
- CGTCTTAG — higher, -0.168
- AACTCAGG — higher, 0.0528
- CGCTGTAG — higher, -0.198
- ATAGCAGG — higher, -0.0636
- GCAATTAA — higher, 0.324
- AAGGAGAG — higher, -0.222
- CTATACTA — higher, 0.156
- AGACCAAA — higher, 0.0534
- CAAACATA — higher, 0.239
- ATGTTCGG — higher, -0.0503
- ACGTGATC — higher, -0.0703
- CCTCAACG — higher, -0.151
- GACCCCCA — higher, -0.312
- ATCATTCC — higher, -0.0603
- CTACAAAC — higher, 0.0234
- ACCTAACT — higher, 0.17
- GAATCCGA — higher, 0.00482
- GATGTGGA — higher, -0.0636
- AGGTGAAC — higher, -0.0221
- CTTCGTAC — higher, 0.0657
- GGCTATAC — higher, -0.116
- AACTTTTG — higher, 0.236
- AATCTCGC — higher, 0.152
- AAGCACAA — higher, 0.0557
- CAGCATTA — higher, 0.186
- CTAGCCAG — higher, -0.326
- ACGGCATA — higher, 0.13
- ACCTTTTG — higher, 0.024
- CTCCAGTC — higher, -0.167
- AGTGAGGG — higher, -0.315
- CGGAAACG — higher, -0.182
- TCGAGCCA — higher, -0.31
- ATCCACTC — higher, -0.167
- ATTAGCGC — higher, 0.0102
- ACCCGCCT — higher, -0.136
- AACAGTTG — higher, 0.0981
- AAGGACTC — higher, -0.238
- AAACGTAG — higher, -0.0334
- CAAAGACA — higher, -0.0437
- ACGTCCTA — higher, -0.0341
- GAACGCAC — higher, -0.133
- AGGATGCA — higher, -0.0501
- ATCCGTTA — higher, 0.103
- AGTAATCA — higher, 0.189
- GAACCGGA — higher, -0.213
- CGACCGAC — higher, -0.211
- TGGGCGAA — higher, -0.0675
- TATTCGGA — higher, -0.000615
- TCTCAGCA — higher, -0.127
- ACAAATTG — higher, 0.137
- ATATCCGG — higher, 0.0998
- CCTGGTTA — higher, -0.0811
- TGGCCACA — higher, -0.107
- GCTATCAC — higher, -0.038
- GTACGCGA — higher, -0.0165
- ATGCAGGG — higher, -0.155
- AAAGCTAA — higher, -0.000957
- GGACCTGA — higher, -0.207
- CGATCGCA — higher, -0.0847
- AGGTCCGC — higher, -0.229
- ACAAATAA — higher, 0.38
- CGCTGGGC — higher, -0.291
- CAGTCGGG — higher, -0.177
- TACGCACA — higher, 0.0888
- CCACTCGC — higher, -0.201
- GACCCTAA — higher, -0.19
- GAGTTTAA — higher, 0.235
- CGTATTAC — higher, 0.17
- CGCTTGAC — higher, -0.22
- ATTCAGGG — higher, 0.0144
- CGCATTGA — higher, -0.126
- CGGATGAC — higher, -0.186
- CTCTGAAC — higher, -0.131
- GCCAGGGC — higher, -0.268
- CTCTGCCC — higher, -0.164
- AAGGACTA — higher, -0.00864
- AGCGGGCC — higher, -0.323
- CGCCCTCC — higher, -0.309
- TACGGTGA — higher, -0.0369
- CACCAGGA — higher, -0.0879
- CCGAACAA — higher, 0.0435
- AAGGTTGA — higher, -0.0613
- CTCAGCAG — higher, -0.226
- CGTTCACA — higher, -0.112
- AGGGGGAA — higher, -0.164
- AATCTAGT — higher, 0.0292
- TCAGAAAA — higher, -0.0512
- CCCCTCTA — higher, -0.282
- CCTGCTGA — higher, -0.186
- AAGGTCAC — higher, -0.175
- AACTACAG — higher, 0.0893
- GAGCAAGC — higher, -0.2
- ACTTCTTC — higher, 0.0165
- CATATATG — higher, 0.449
- CGCAGGAC — higher, -0.325
- CGCCAATC — higher, -0.0439
- ACCGTCAG — higher, -0.19
- CAAACTCA — higher, 0.0244
- TAGGGCCA — higher, -0.0889
- AAAAGTTG — higher, 0.221
- TAGGCTGA — higher, -0.18
- ATTAGTTC — higher, 0.297
- ACCTTTCC — higher, -0.0591
- CCCACTCG — higher, -0.0719
- CGAGGGGC — higher, -0.302
- CAAGGAAA — higher, -0.0687
- ATCGGACG — higher, -0.232
- GGTGAAGA — higher, -0.00334
- ACTAGCGG — higher, 0.021
- ATGCTCCC — higher, -0.108
- GTTTTCCA — higher, 0.00845
- TAGAGTCA — higher, 0.01
- AAAAGACT — higher, 0.105
- AATGTCAT — higher, 0.251
- GACGAGAC — higher, -0.168
- CGCTCTAA — higher, 0.0519
- TATGTTAA — higher, 0.344
- GGCCCTGA — higher, -0.181
- CGCGACTA — higher, -0.056
- GTGACGGA — higher, -0.125
- CAGCCGGG — higher, -0.258
- ATACAGCA — higher, 0.172
- TACTTGGA — higher, 0.157
- TCCTTCCA — higher, -0.27
- CATTATTC — higher, 0.363
- ATCCTGCG — higher, -0.142
- ACACAAGG — higher, -0.0964
- ATAGGTCG — higher, -0.0503
- GGGAAGAA — higher, -0.11
- ATGCCCAT — higher, -0.116
- ACTGCACA — higher, 0.039
- CATCGTCG — higher, -0.131
- AGTCGCCA — higher, -0.174
- CTCTTAAG — higher, 0.0344
- ATCCCCGG — higher, -0.27
- CTTTGAGC — higher, -0.102
- CGAAGACC — higher, -0.222
- ACTGCACT — higher, 0.0411
- CGCAAAAC — higher, 0.0266
- ACGCCTTC — higher, -0.283
- AGACCTCT — higher, -0.233
- ATAGGTAA — higher, 0.173
- CTTGAGAC — higher, 0.0307
- CATGACCG — higher, -0.191
- CACGAATG — higher, -0.0221
- AGTTAATA — higher, 0.406
- AGACAGCT — higher, -0.0875
- AGGGTGAT — higher, -0.16
- CGAATCGC — higher, -0.202
- CTCACCGC — higher, -0.185
- GCACCCGC — higher, -0.299
- TAAAGACA — higher, 0.132
- CCACCAAC — higher, 0.00191
- CGCCTCTC — higher, -0.305
- GAATGCTC — higher, -0.187
- ATGACAAT — higher, 0.125
- CTCATAAC — higher, -0.0784
- TCGCTACA — higher, -0.152
- ATGAATGC — higher, 0.0337
- ACCGGCGT — higher, -0.213
- CCCAGTCG — higher, -0.131
- ATGCTACG — higher, -0.157
- AAACGTAC — higher, 0.0424
- TCTCGTAA — higher, -0.0867

Source: the supplement of paper PMC4466236
